Measurements from the supplement of paper PMC4967469.
By IC50 is meant the dose at which the fit gives 50% viability; a limit (>, <) means that the fit lies beyond the doses tested. AUC sums up the same curve from the lowest dose to the 256-fold higher top dose; the more sensitive the line, the further below 1. For some assays here: Where the top dose is marked as inferred, it comes from the curve model; the source does not state it. For some assays here: Drugs with an entry number were screened twice under separate entries, and the two screens often disagree.

Legend:
Test in all cases: Viability of human cancer cell lines after 72 h of drug (GDSC screen)
XMD13-2 = compound: O=C(NC1CC1)c1cccc(-c2ccc3c(NC(=O)C4CC4)n[nH]c3c2)c1 [XMD13-2]; conditions: top dose 10.24 µM; top dose inferred
Experimental: (§1)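 Human cancer cell lines in 384-well plates, medium with 10% serum, drug for 72 h over a 256-fold dose range (nine 2-fold or five 4-fold steps up to the top dose). Adherent lines were fixed and stained with the nucleic acid dye Syto60, suspension lines read with resazurin; signal relative to control wells, capped at 0 and 100%. One two-parameter sigmoid per drug and line, fitted in a mixed model over all curves with the slope shared within a line.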

SNX-2112 = compound: CC1(C)CC(=O)c2c(C(F)(F)F)nn(-c3ccc(C(N)=O)c(N[C@H]4CC[C@H](O)CC4)c3)c2C1 [SNX-2112]; conditions: top dose 2.56 µM
Experimental: as §1

PF-562271 = compound: CN(c1ncccc1CNc1nc(Nc2ccc3c(c2)CC(=O)N3)ncc1C(F)(F)F)S(C)(=O)=O [PF-562271]; conditions: top dose 2.56 µM; top dose inferred
Experimental: as §1

Afatinib = compound: CN(C)C/C=C/C(=O)Nc1cc2c(Nc3ccc(F)c(Cl)c3)ncnc2cc1O[C@H]1CCOC1 [Afatinib]
Experimental: as §1

Vinblastine = compound: CC[C@]1(O)C[C@@H]2CN(CCc3c([nH]c4ccccc34)[C@@](C(=O)OC)(c3cc4c(cc3OC)N(C)[C@H]3[C@@](O)(C(=O)OC)[C@H](OC(C)=O)[C@]5(CC)C=CCN6CC[C@]43[C@@H]65)C2)C1 [Vinblastine]; conditions: top dose 0.1 µM; top dose inferred
Experimental: as §1

[1] = top dose 0.5 µM, screen: GDSC drug entry 1032
[2] = top dose 10 µM, screen: GDSC drug entry 1377, top dose inferred

Cell Line | AUC (XMD13-2) | IC50 (XMD13-2) | AUC (SNX-2112) | IC50 (SNX-2112) | AUC (PF-562271) | IC50 (PF-562271) | AUC (Afatinib; [1]) | IC50 (Afatinib; [1]) | AUC (Afatinib; [2]) | IC50 (Afatinib; [2]) | AUC (Vinblastine) | IC50 (Vinblastine)
8-MG-BA (glioma, adherent) | 0.861 | 7800 nM | 0.383 | 77.8 nM | 0.884 | 2480 nM | 0.986 | > 500 nM | 0.962 | > 10000 nM | 0.44 | 4.34 nM
22RV1 (prostate, adherent) | 0.898 | > 10200 nM | 0.313 | 41.7 nM | 0.903 | > 2560 nM | 0.981 | > 500 nM | 0.954 | > 10000 nM | 0.601 | 12.7 nM
42-MG-BA (glioma, adherent) | 0.94 | > 10200 nM | 0.547 | 216 nM | 0.895 | > 2560 nM | 0.984 | > 500 nM | 0.974 | > 10000 nM | 0.568 | 9.74 nM
201T (lung adenocarcinoma, adherent) | 0.939 | > 10200 nM | 0.845 | > 2560 nM | 0.872 | > 2560 nM | 0.919 | > 500 nM |  |  | 0.582 | 11.1 nM
451Lu (melanoma, adherent) | 0.966 | > 10200 nM | 0.844 | 1710 nM | 0.905 | > 2560 nM | 0.989 | > 500 nM | 0.958 | > 10000 nM | 0.344 | 2.36 nM
639-V (bladder, adherent) | 0.987 | > 10200 nM | 0.494 | 154 nM | 0.913 | > 2560 nM | 0.962 | > 500 nM | 0.965 | > 10000 nM | 0.449 | 4.65 nM
647-V (bladder, adherent) | 0.968 | > 10200 nM | 0.802 | 1270 nM | 0.916 | > 2560 nM | 0.951 | > 500 nM | 0.932 | > 10000 nM | 0.693 | 21.8 nM
5637 (bladder, adherent) | 0.886 | 9430 nM | 0.63 | 351 nM | 0.87 | 2000 nM | 0.901 | > 500 nM | 0.875 | 8270 nM | 0.254 | 1.34 nM
8305C (thyroid, adherent) | 0.971 | > 10200 nM | 0.942 | > 2560 nM | 0.747 | 1040 nM | 0.957 | > 500 nM | 0.97 | > 10000 nM | 0.459 | 4.68 nM
A3-KAW (B-cell lymphoma, suspension) | 0.874 | 6610 nM | 0.266 | 40.7 nM | 0.907 | 2240 nM | 0.991 | > 500 nM | 0.956 | > 10000 nM | 0.532 | 7.49 nM
A4-Fuk (B-cell lymphoma, suspension) | 0.954 | > 10200 nM | 0.888 | > 2560 nM | 0.886 | > 2560 nM | 0.973 | > 500 nM | 0.966 | > 10000 nM | 0.322 | 1.95 nM
A101D (melanoma, adherent) | 0.981 | > 10200 nM | 0.878 | > 2560 nM | 0.88 | > 2560 nM | 0.975 | > 500 nM | 0.966 | > 10000 nM | 0.553 | 9.04 nM
A253 (head and neck, adherent) | 0.964 | > 10200 nM | 0.892 | > 2560 nM | 0.906 | > 2560 nM | 0.949 | > 500 nM | 0.941 | > 10000 nM | 0.619 | 13.1 nM
A375 (melanoma, adherent) | 0.991 | > 10200 nM | 0.304 | 50.7 nM | 0.926 | > 2560 nM | 0.99 | > 500 nM | 0.99 | > 10000 nM | 0.347 | 2.57 nM
A388 (skin, adherent) | 0.938 | > 10200 nM | 0.642 | 419 nM | 0.959 | > 2560 nM | 0.815 | 327 nM | 0.879 | > 10000 nM | 0.569 | 9.96 nM
A498 (kidney, adherent) | 0.969 | > 10200 nM | 0.962 | > 2560 nM | 0.916 | > 2560 nM | 0.79 | 361 nM | 0.965 | > 10000 nM | 0.523 | 7.44 nM
A2058 (melanoma, adherent) | 0.925 | > 10200 nM | 0.926 | > 2560 nM | 0.91 | > 2560 nM | 0.988 | > 500 nM | 0.988 | > 10000 nM | 0.375 | 2.95 nM
ACHN (kidney, adherent) | 0.946 | > 10200 nM | 0.862 | > 2560 nM | 0.892 | > 2560 nM | 0.737 | 166 nM | 0.379 | 277 nM | 0.775 | 45.1 nM
AGS (stomach, adherent) | 0.973 | > 10200 nM | 0.419 | 98.2 nM | 0.821 | 1290 nM | 0.974 | > 500 nM |  |  | 0.631 | 13.7 nM
ALL-PO (lymphoblastic leukaemia, suspension) | 0.78 | 4460 nM | 0.201 | 19.6 nM | 0.764 | 980 nM | 0.932 | > 500 nM | 0.981 | > 10000 nM | 0.287 | 1.5 nM
ALL-SIL (T-cell leukaemia, suspension) | 0.439 | 447 nM | 0.292 | 45.9 nM | 0.838 | 1400 nM | 0.982 | > 500 nM | 0.942 | > 10000 nM | 0.225 | 1.15 nM
